What all share (test): cell count relative to DMSO control; melanoma cells; higher = more viable cells
Holding throughout (conditions): library dose: standard library concentration; 72 h

The subject of assay [1] is 501Mel.
The test system of assay [2] is A101D.
Assay [3] concerns A2058.
For assay [4], the system named is A375.

Some of the results follow. Repeats are few or missing, and single values can be far off.
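Also: cells treated in 1,536-well plates, then fixed and DAPI-stained, with nuclei counted from automated high-throughput microscope images.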

On to `CC1(C)CCC(c2ccc(Cl)cc2)=C(CN2CCN(c3ccc(C(=O)NS(=O)(=O)c4ccc(N[C@H](CCN5CCOCC5)CSc5ccccc5)c(S(=O)(=O)C(F)(F)F)c4)cc3)CC2)C1` + c1cc(-c2cnn3cc(-c4ccc(OCCN5CCCCC5)cc4)cnc23)ccn1 [Dorsomorphin] (first compound 2 µM, partner dose 2 µM), for which the cell count was 57.3% in assay [1], 23.8% in assay [2], 70.5% in assay [3] and 44% in assay [4].

Consider `Cc1ccc(Nc2nccc(N(C)c3ccc4c(C)n(C)nc4c3)n2)cc1S(N)(=O)=O` [Pazopanib] + O=c1cc(-c2cccc3c2Sc2ccccc2S3)oc(N2CCOCC2)c1 [KU55933] (first compound 2 µM, partner dose 5 µM), for which the cell count in assay [1] came to 124%; in assay [2], 75.4%; in assay [3], 105%; in assay [4], 105%.

Turning to `O=C(/C=C/c1cccnc1)NCCCCC1CCN(C(=O)c2ccccc2)CC1` + CCCCCCCCCCCC1=C(O)C(=O)C=C(O)C1=O [Embelin] (first compound 0.05 µM, partner dose 6 µM), the cell count in assay [1] amounted to 79.3%; in assay [2] it was 68.5%; in assay [3] it was 93.2%; in assay [4], 112%.

On to `O=C(/C=C/c1cccnc1)NCCCCC1CCN(C(=O)c2ccccc2)CC1` + O=C(O)C(=O)Nc1sc2c(c1C(=O)O)CCNC2 [TCS401] (first compound 0.05 µM, partner dose 8.33333 µM), for which the cell count came to 83.2% in assay [1], 86.5% in assay [2], 85.7% in assay [3] and 189% in assay [4].

Turning to `O=C(/C=C/c1cccnc1)NCCCCC1CCN(C(=O)c2ccccc2)CC1` + O=C(Nc1ccccc1)c1cc([N+](=O)[O-])ccc1Cl [GW9662] (first compound 0.05 µM, partner dose 10 µM), the cell count worked out at 69.7% in assay [1], 75.9% in assay [2], 119% in assay [3] and 147% in assay [4].

The values above are taken from the supplement of paper PMC4604168 (melanoma cell lines).
